# Reference: PubChem BioAssay (Tox21)
# The shares of active, inactive and inconclusive entries below differ from those in the screen. Potencies of inconclusive entries are left out as doubtful fits. The source made the active and inactive calls. The call rests on the fitted dose curve; in most records, active means well fitted curve in the direction sought with a large enough effect in the repeat runs; inconclusive means weak or mixed curves; inactive means no such curve, though single readings can be large; an effect the other way counts as inactive or inconclusive.
# Experiment: qHTS RealTime-Glo MT Cell Viability Assay in HepG2 cells - 32 hour (AID 1224877); further: nearly all actives have a fitted effect of over 55% in size
# Conditions: RealTime-Glo luminescence; series mostly up to 76.8 µM
# Procedure, shortened: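 Real-time, nonlytic viability: 600 HepG2 cells/well mixed with NanoLuc enzyme plus prosubstrate; 5 h settle, compound (DMSO) added by pintool; luminescence monitored over 40 h at 37 C.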
# Potency means the concentration at half of the fitted maximal effect; tags describe the fitted curve by direction and shape.
row,Compound,Potency
1,N#Cc1ccccc1,inactive
2,C[N+]1(CC2COC(c3ccccc3)(C3CCCCC3)O2)CCCCC1 (configuration not stated),"inconclusive [cytotoxic, single point]"
3,CN1CCC[C@@H]1Cc1c[nH]c2ccc(CCS(=O)(=O)c3ccccc3)cc12,inactive
4,O=[N+]([O-])c1ccc(O)cc1C(F)(F)F,"inconclusive [cytotoxic, partial curve, poor fit]"
5,S=C(S)NCCNC(=S)S,inactive

# Experiment: A CellTox Green Cytotoxicity Assay to monitor cytotoxicity in HepG2 cells - 24 hour (AID 1224878); further: nearly all actives have a fitted effect of over 45% in size
# Conditions: CellTox Green fluorescence; series mostly up to 76.8 µM
# Procedure, shortened: (§1)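 Measurements at 0, 8, 16, 24, 32 and 40 h of treatment captured CellTox Green fluorescence in HepG2 cells that had been co-plated with reagent and preincubated 5 h at 37 C/5% CO2.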
row,Compound,Potency
1,N#Cc1ccccc1,"inconclusive [activator, single point]"
2,Cc1cc(C)c(C)c(C)c1,inactive
3,Cc1ccccc1C(=O)Nc1ccc(C(=O)N2CCCC(N(C)C)c3ccccc32)cc1 (configuration not stated),"inconclusive [activator, partial curve, poor fit]"
4,Cc1ccncc1,inactive
5,O=C(O)CCCC[P+](c1ccccc1)(c1ccccc1)c1ccccc1,"inconclusive [activator, single point]"
6,O=C(NCC1CN(c2ccc(N3CCOCC3=O)cc2)C(=O)O1)c1ccc(Cl)s1 (configuration not stated),"inconclusive [activator, single point]"
7,CCN(CC)CC(=O)Nc1c(C)cccc1C,inactive
8,CC(C)=CCC/C(C)=C/C(=O)O,"inconclusive [activator, single point]"
9,COC(=O)/C=C\C(=O)OC,"inconclusive [activator, single point]"
10,C[C@@H]1CCC[C@H](C)N1CCCC(O)(c1ccccc1)c1ccccn1 (some centres not stated),inactive
11,O=C(N[C@@H](Cc1ccccc1)[C@@H](O)C(=O)N1C[C@@H](O)[C@@H](O)C1)c1cc2cc(Cl)ccc2[nH]1,"inconclusive [activator, full curve, poor fit]"
12,CC1(C)[C@@H]2CC[C@]3(C2)[C@@H]1C(=O)CCC3(C)C,inactive

# Experiment: A CellTox Green Cytotoxicity Assay to monitor cytotoxicity in HepG2 cells - 40 hour (AID 1224879); further: nearly all actives have a fitted effect of over 40% in size
# Conditions: CellTox Green fluorescence; series mostly up to 76.8 µM
# Procedure, shortened: as §1
row,Compound,Potency
1,N#Cc1ccccc1,"inconclusive [activator, single point]"
2,O=C1CCCC1,inactive
3,OCCCC1CCCCC1,inactive
4,Cc1ccccc1C(=O)Nc1ccc(C(=O)N2CCCC(N(C)C)c3ccccc32)cc1 (configuration not stated),active: 6.74 µM
5,Cc1cn([C@H]2C=C[C@@H](CO)O2)c(=O)[nH]c1=O,inactive
6,O=C(O)CCCC[P+](c1ccccc1)(c1ccccc1)c1ccccc1,"inconclusive [activator, single point]"
7,COc1ccc([C@@H]2Sc3ccccc3NC(=O)[C@@H]2O)cc1,"inconclusive [activator, single point]"
8,NS(=O)(=O)c1ccc(C(=O)O)cc1,inactive
9,O=C(NCC1CN(c2ccc(N3CCOCC3=O)cc2)C(=O)O1)c1ccc(Cl)s1 (configuration not stated),"inconclusive [activator, single point]"
10,CC(C)=CCC/C(C)=C/C(=O)O,"inconclusive [activator, single point]"
11,O=[N+]([O-])c1ccc(O)cc1C(F)(F)F,"inconclusive [activator, single point]"
12,COC(=O)/C=C\C(=O)OC,"inconclusive [activator, single point]"
13,C[C@@H]1O[C@@H](O[C@@H]2[C@@H](O)[C@H](OCCc3ccc(O)c(O)c3)O[C@H](CO[C@@H]3O[C@H](CO)[C@@H](O)[C@H](O)[C@H]3O)[C@H]2OC(=O)/C=C/c2ccc(O)c(O)c2)[C@H](O)[C@H](O)[C@H]1O,"inconclusive [activator, single point]"
14,O=S(=O)(O)CC(O)CCl (configuration not stated),inactive
15,CC(C)O.CC(C)O.CCOC(=O)/C=C(\C)O.CCOC(=O)/C=C(\C)O.[Ti],inactive
16,CCCCCCCCCCCCOCCOS(=O)(=O)O,active: 54.9 µM
17,O=C(N[C@@H](Cc1ccccc1)[C@@H](O)C(=O)N1C[C@@H](O)[C@@H](O)C1)c1cc2cc(Cl)ccc2[nH]1,"inconclusive [activator, full curve, poor fit]"
18,COc1cc2c(cc1OC)-c1cc(=Nc3c(C)cc(C)cc3C)n(C)c(=O)n1CC2,active: 21.3 µM
19,CCCOc1ccccc1-c1nc2n[nH]nc2c(=O)[nH]1,inactive
20,CC(=O)c1ccc2c(c1)N(CCCN(C)C)c1ccccc1S2,"inconclusive [activator, partial curve]"
